These results are taken from PubChem BioAssay AID1745853 (National Center for Advancing Translational Sciences (NCATS), 2022).

What all share (assay): Primary Screen for Target Class Profiling of Small Molecule Inhibitors of Methyltransferases
Test [1] has as its target Glycine N-methyltransferase (Homo sapiens) (UniProt Q14749). Conditions: purified enzyme, MTase-Glo SAH luminescence; measured here: GNMT inhibition; at 40 µM; stronger effect = lower value. The procedure, abridged: (§1)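 Each enzyme was reacted with SAM and its substrate, with compounds tested once at 40 uM; SAH formed was read by MTase-Glo luminescence.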
Test [2] addresses Guanidinoacetate N-methyltransferase (Homo sapiens) (UniProt Q14353). Conditions: purified enzyme, MTase-Glo SAH luminescence; measured here: GAMT inhibition; at 40 µM; stronger effect = lower value. The procedure, abridged: as §1
Test [3] concerns the target Histamine N-methyltransferase (Homo sapiens) (UniProt P50135). As to conditions: purified enzyme, MTase-Glo SAH luminescence; measured here: HNMT inhibition; at 40 µM; stronger effect = lower value. The procedure, abridged:
as §1

In test [4] the target is Nicotinamide N-methyltransferase (Homo sapiens) (UniProt P40261). As to conditions: purified enzyme, MTase-Glo SAH luminescence; measured here: NNMT inhibition; at 40 µM; stronger effect = lower value. The essentials: as §1
Test [5] deals with Phenylethanolamine N-methyltransferase (Homo sapiens) (UniProt P11086). Conditions: purified enzyme, MTase-Glo SAH luminescence; measured here: PNMT inhibition; at 40 µM; stronger effect = lower value. The procedure, abridged:
as §1

The structures appear in SMILES notation. This is one part of the list. The main result of the screen is listed elsewhere. These columns were measured beside it and carry no call.
On the % scale 0 is the no-effect control and ±100 the full control effect.

As for `Cc1ccc(NC(=O)Cn2nc3n(CC(C)C)c(=O)c4ccc(C(=O)NC(C)C)cc4n3c2=O)cc1`, the activity change, negative = inhibition in test [1] was -0.381%; in test [2], 5.52%; in test [3], -0.549%; in test [4] it was -2.63%; in test [5], -2.16%.

On to `C=CC(C)(CC/C=C(\C)C(=O)OC[C@H]1O[C@@H](OC(C)(C=C)CC/C=C(\C)C(=O)O[C@H]2[C@H](O)[C@@H](O)[C@H](OC(C)(C=C)CC/C=C(\C)C(=O)O)O[C@@H]2CO)[C@H](O)[C@@H](O)[C@@H]1O)O[C@@H]1O[C@H](CO)[C@@H](O)[C@H](O)[C@H]1O` (stereo not given in full), for which the activity change, negative = inhibition is 6.55% in test [1]; 6.15% in test [2]; 10% in test [3]; -5.9% in test [4]; 7.01% in test [5].

With `COC1=CC(=O)CC(C)C12Oc1cc(OC)cc(O)c1C2=O` (stereo not given), the activity change, negative = inhibition in test [1] was 0%; in test [2], -0.076%; in test [3], 2.89%; in test [4] it was -11.7%; in test [5] it was 3.07%.

As to `O=C(c1ccccc1)N1CCCC2(CC(c3cccc(C(F)(F)F)c3)=NO2)C1` (stereo not given), the activity change, negative = inhibition in test [1] is -3.85%; in test [2], 1.69%; in test [3], 0.96%; in test [4], -3.25%; in test [5], -4.03%.

For the compound `O=C(c1ccc(C2CCCNC2)cc1)N1CCCN(c2ccc(F)cc2)CC1` (stereo not given), the activity change, negative = inhibition in test [1] was -1.97%; in test [2] it was -0.586%; in test [3], -4.63%; in test [4], -5.98%; in test [5] it was -2.55%.

As to `COc1cccc(CN(C(=O)CC(C)(C)C)C2CC(C(=O)N3CCNCC3)N(Cc3ccc4c(c3)OCO4)C2)c1` (stereo not given), the activity change, negative = inhibition in test [1] was -1.13%; in test [2], -0.021%; in test [3], 9.85%; in test [4], -24.4%; in test [5] it was 2.59%.

For the compound `O=C(Cn1nc2nc(Nc3ccc(F)cc3)ccn2c1=O)Nc1ccc(F)cc1F`, the activity change, negative = inhibition is -4.89% in test [1]; 0% in test [2]; 0.013% in test [3]; -13.9% in test [4]; -10.8% in test [5].

For the compound `O=C(Cn1nc2nc(Nc3ccc(F)cc3)ccn2c1=O)Nc1cccc(F)c1`, the activity change, negative = inhibition is -7.51% in test [1]; -5.79% in test [2]; 0.768% in test [3]; -12.5% in test [4]; -6.82% in test [5].

As for `Cc1ccc(N(CC(=O)N[C@H]2C[C@@H]3OCC[C@H]23)S(C)(=O)=O)cc1`, the activity change, negative = inhibition in test [1] was -0.465%; in test [2] it was 0.13%; in test [3] it was 1.88%; in test [4], 2.8%; in test [5], -0.204%.

For `CC(C)Oc1ccc(CNC(=O)Cn2ccc3cc(S(=O)(=O)N4CCCCC4)ccc32)cc1`, the activity change, negative = inhibition in test [1] amounted to 1.43%; in test [2], 0%; in test [3], 6.13%; in test [4], 2.9%; in test [5], 1.38%.

Consider `CN(CCc1nc2ccc(Cl)cc2[nH]1)c1cc(C2CC(O)C2)nc(N)n1` (stereo not given), for which the activity change, negative = inhibition is -5.56% in test [1]; -7.23% in test [2]; -54.4% in test [3]; -15.7% in test [4]; -1.57% in test [5].

With `O=C1NC(=O)C(c2ccccc2[N+](=O)[O-])=C1Nc1ccc(O)c(Cl)c1`, the activity change, negative = inhibition in test [1] was -49.2%; in test [2], -3.63%; in test [3], -4.01%; in test [4], -17.2%; in test [5], -31.1%.

For `Cc1cc2[nH]c(=O)[nH]c2cc1S(=O)(=O)NCCc1ccc(Cl)cc1`, the activity change, negative = inhibition in test [1] is 12.4%; in test [2], 0%; in test [3] it was 12.2%; in test [4], -0.972%; in test [5] it was 6.07%.

On to `Cc1noc(-c2cccn3c(CNC(=O)Cc4cccc(F)c4)nnc23)n1`, for which the activity change, negative = inhibition in test [1] was -1.94%; in test [2], 0.874%; in test [3], -0.448%; in test [4] it was 2.89%; in test [5], -1.55%.

In the case of `CN(C)C(=O)COC(=O)c1cc(-c2ccc(C3CCNCC3)cc2)c2ccc(-c3ccc(C(F)(F)F)cc3)cc2c1`, the activity change, negative = inhibition in test [1] was -6.8%; in test [2] it was 8.7%; in test [3] it was 1%; in test [4], -27.5%; in test [5], 2.85%.

For the compound `COc1ccccc1CN1C(=O)c2cc3ccccc3n2CC1(C)C(=O)NCCC(C)C` (stereo not given), the activity change, negative = inhibition in test [1] is 3.26%; in test [2] it was 0.956%; in test [3] it was 3.6%; in test [4] it was -0.207%; in test [5], -2.02%.

With `COC(=O)COc1ccc2c(-c3ccccc3)cc(=O)oc2c1`, the activity change, negative = inhibition is -5.54% in test [1]; 0% in test [2]; 3.26% in test [3]; -7.96% in test [4]; -22.2% in test [5].

As for `CS(=O)(=O)c1ccc(CN2CCC(C(O)c3ccccn3)CC2)cc1` (stereo not given), the activity change, negative = inhibition in test [1] was -3.66%; in test [2] it was -3.27%; in test [3] it was -2.37%; in test [4], -7.07%; in test [5] it was -5.5%.

For the compound `CC1(C(=O)NCc2ccccc2)Cn2c(ccc2-c2ccco2)C(=O)N1CCc1ccco1` (stereo not given), the activity change, negative = inhibition in test [1] was -4.87%; in test [2], 0.752%; in test [3], 1.27%; in test [4], -3.36%; in test [5] it was -3.91%.

Regarding `Cc1cccc(NC(=O)N2Cc3c(sc4c3CCCC4)-n3cccc3C2c2ccccc2)c1` (stereo not given), the activity change, negative = inhibition in test [1] is -4.19%; in test [2], 4.57%; in test [3] it was -4.83%; in test [4], -5.3%; in test [5] it was -0.767%.

In the case of `Cc1ccc(NS(=O)(=O)c2ccc3[nH]c4c(c3c2)CCCC4)cc1Cl`, the activity change, negative = inhibition is -1.71% in test [1]; 4.24% in test [2]; 1.38% in test [3]; -15.2% in test [4]; 0.636% in test [5].

In the case of `O=C(O[C@H]1[C@H](Oc2ccc(O)cc2CO)O[C@H](CO)[C@@H](O)[C@@H]1O)c1ccccc1`, the activity change, negative = inhibition was 0% in test [1]; 7.38% in test [2]; 10.3% in test [3]; -4.87% in test [4]; 4.36% in test [5].

On to `CCN1CCN(CCN2CC3(CCN(C4CCOCC4)CC3)OC2=O)CC1`, for which the activity change, negative = inhibition in test [1] is -4.6%; in test [2], -5.68%; in test [3], -2.85%; in test [4] it was -9.87%; in test [5] it was 8.53%.

For the compound `Cc1cnc(-c2ccccc2)n1C1CCN(S(=O)(=O)c2ccc3c(c2)OCCO3)CC1`, the activity change, negative = inhibition is -7.46% in test [1]; 0.502% in test [2]; -1.35% in test [3]; -20.2% in test [4]; -1.48% in test [5].

On to `COc1ccc(N2C(=O)c3cc4ccccc4n3CC2(C)C(=O)NCCC(C)C)c(OC)c1` (stereo not given), for which the activity change, negative = inhibition in test [1] is 1.26%; in test [2], 3.46%; in test [3], 1.68%; in test [4] it was 0.697%; in test [5], -0.586%.

As for `COc1cccc(CN2C(=O)c3cc4ccccc4n3CC2(C)C(=O)NCCCOC(C)C)c1OC` (stereo not given), the activity change, negative = inhibition in test [1] is -3.55%; in test [2], 5.32%; in test [3], -0.768%; in test [4], 6.25%; in test [5], -0.313%.

As to `CC(C)CCNC(=O)C1(C)Cn2nc(C(=O)NCc3ccc4c(c3)OCO4)cc2C(=O)N1C` (stereo not given), the activity change, negative = inhibition worked out at 1.64% in test [1]; 0% in test [2]; 2.37% in test [3]; 2.98% in test [4]; 2.67% in test [5].

Regarding `COCCCNC(=O)CCc1nnc2n(CCc3ccccc3)c(=O)c3ccccc3n12`, the activity change, negative = inhibition was -11.2% in test [1]; -0.023% in test [2]; -2.21% in test [3]; -1.16% in test [4]; -7.29% in test [5].

In the case of `COc1ccc(CC(=O)NC2CCN(C(=O)c3ccc(-c4cccs4)cc3)CC2)cc1`, the activity change, negative = inhibition in test [1] was -3.28%; in test [2] it was -1.45%; in test [3] it was 1.22%; in test [4], -3.13%; in test [5] it was -3.85%.
